# In paper PMC5540273 (PLoS ONE, 2017):
# Only a part is listed here, and it is no random draw.
# Test system: CIT
# Conditions: concentration: 1 μM,replicates: in singlicate; n = 1
# 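Further: KINOMEscan kinase panel screen.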
row,SMILES,%Inh [%]
1,O=C1NC(=O)C(c2ccc(Cl)cc2)=C1Nc1cccc(C(=O)O)c1 [SB-360737],5
2,O=C1NC(=O)C(c2ccccc2Cl)=C1Nc1cccc(C(=O)O)c1 [SB-390526],6
3,O=C1NC(=O)C(c2ccc(Cl)cc2)=C1Nc1ccc(O)c(Cl)c1 [SB-405367],10
4,O=C1NC(=O)C(c2ccc(Cl)cc2)=C1Nc1cccc(O)c1 [SB-333613],17
5,O=C1NC(=O)C(c2ccccc2)=C1Nc1cc(Cl)c(O)c(Cl)c1 [SB-390530],20
6,Cc1ccc(C)c(Oc2nccc(-c3c(-c4ccc(F)cc4)ncn3C3CCNCC3)n2)c1.O=C(O)C(F)(F)F.O=C(O)C(F)(F)F.O=C(O)C(F)(F)F [SB-284852],93.7
7,Cc1cc(C)cc(Oc2nccc(-c3c(-c4ccc(F)cc4)ncn3C3CCNCC3)n2)c1.O=C(O)C(F)(F)F.O=C(O)C(F)(F)F.O=C(O)C(F)(F)F [SB-284851],87
8,O=C1NC(=O)C(c2ccccc2)=C1Nc1ccc(Cl)c(C(=O)O)c1 [SB-390532],24
9,O=C1NC(=O)C(c2ccccc2Cl)=C1Nc1ccccc1 [SB-376715],3
10,O=C(O)c1ccc(-c2nc(-c3ccc(F)cc3)c(-c3ccncc3)[nH]2)cc1 [SB-202620],42
11,COc1cccc(C2=C(Nc3ccc(SC)cc3)C(=O)NC2=O)c1 [SB-331032],0
12,COc1ccc(C2=C(Nc3cccc(Cl)c3)C(=O)NC2=O)cc1 [SB-326892],25
13,CSc1ccc(NC2=C(c3cccc(Cl)c3)C(=O)NC2=O)cc1 [SB-341528],0
